We go through 31 cell lines from the supplement of paper PMC4967469.

By IC50 is meant the dose at which the fit gives 50% viability; fits outside the tested doses are given as limits. For AUC the same curve is integrated over the 256-fold range of doses and scaled to a fraction: 1 means no effect, lower means more sensitive. Where the top dose is marked as inferred, it was calculated from the reported fits. Where only a bound is given, the exact number is not on record here.

Compound in one assay: O=C1NC(=O)c2c1c(-c1ccccc1Cl)cc1[nH]c3ccc(O)cc3c21 [Wee1 inhibitor 681640]
Nature of the assay: Viability of human cancer cell lines after 72 h of drug (GDSC screen). Conditions: top dose 2 µM; top dose inferred. As to the method:
(§1)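 Human cancer cell lines in 384-well plates, medium with 10% serum, drug for 72 h over a 256-fold dose range (nine 2-fold or five 4-fold steps up to the top dose). Adherent lines were fixed and stained with the nucleic acid dye Syto60, suspension lines read with resazurin; signal relative to control wells, capped at 0 and 100%. One two-parameter sigmoid per drug and line, fitted in a mixed model over all curves with the slope shared within a line.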
As for NCI-H929 (myeloma, suspension), the AUC is 0.91 and the IC50 was > 2000 nM.
Taken in the same sequence, the figures for “NCI-H2066 (small cell lung carcinoma, adherent)” were 0.98 and > 2000 nM.
Taken in the same sequence, the figures for NY (osteosarcoma, adherent) were 0.814 and 1070 nM.
For OVCAR-3 (ovary, adherent) the same measures were 0.849 and 1750 nM.
Turning to RPMI-7951 (melanoma, adherent), the AUC came to 0.89 and the IC50 was > 2000 nM.
Take SK-LU-1 (lung adenocarcinoma, adherent): the AUC was found to be 0.741 and the half-maximal inhibitory concentration (IC50) was found to be 755 nM.
With SK-MEL-28 (melanoma, adherent), the AUC was found to be 0.929 and the IC50 was > 2000 nM.
For SU-DHL-10 (B-cell lymphoma, suspension) the same measures were 0.998 and > 2000 nM.

Compound in another assay: NC(=O)c1ccc(N(C(N)=O)c2c(F)cccc2F)nc1-c1ccc(F)cc1F [VX-702]
Described as above. The conditions noted are these: top dose 2 µM; top dose inferred. As to the method:
as §1
A549 (lung adenocarcinoma, adherent): the AUC stood at 0.982 and the IC50 is > 2000 nM.
For the cell line CAL-78 (chondrosarcoma, adherent), the AUC came to 0.986 and the IC50 is > 2000 nM.
For CL-34 (large intestine, adherent) the same measures were 0.98 and > 2000 nM.
Taken in the same sequence, the figures for DIFI (large intestine, adherent) were 0.988 and > 2000 nM.
Taken in the same sequence, the figures for Jurkat (T-cell leukaemia, suspension) were 0.981 and > 2000 nM.
Regarding NCI-H929 (myeloma, suspension), the AUC was 0.883 and the IC50 amounted to 1590 nM.
Taken in the same sequence, the figures for NY (osteosarcoma, adherent) were 0.984 and > 2000 nM.
Taken in the same sequence, the figures for PCI-30 (head and neck, adherent) were 0.929 and > 2000 nM.
Taken in the same sequence, the figures for PL4 (pancreas, adherent) were 0.985 and > 2000 nM.
Turning to “RERF-LC-KJ (lung adenocarcinoma, adherent)”, the AUC was 0.985 and the IC50 was > 2000 nM.
RKN (ovary, adherent): the AUC turned out to be 0.985 and the IC50 was > 2000 nM.
Taken in the same sequence, the figures for “SBC-3 (small cell lung carcinoma, adherent)” were 0.988 and > 2000 nM.
For SF295 (glioma, adherent) the same measures were 0.975 and > 2000 nM.
With SKN (uterus, adherent), the AUC turned out to be 0.972 and the IC50 was > 2000 nM.
Taken in the same sequence, the figures for SW626 (ovary, adherent) were 0.981 and > 2000 nM.
For “SW1271 (small cell lung carcinoma, adherent)” the same measures were 0.984 and > 2000 nM.
For TOV-21G (ovary, adherent), the AUC is 0.947 and the IC50 was > 2000 nM.
TOV-112D (ovary, adherent): the AUC worked out at 0.969 and the IC50 is > 2000 nM.
Taken in the same sequence, the figures for TT2609-C02 (thyroid, adherent) were 0.964 and > 2000 nM.
Taken in the same sequence, the figures for TYK-nu (ovary, adherent) were 0.971 and > 2000 nM.

Compound in the next assay: Cc1cccc(-c2[nH]c(C(C)(C)C)nc2-c2ccc3nccnc3c2)n1 [SB-525334]
The assay is described as above. The conditions noted are these: top dose 20 µM; top dose inferred. On the procedure:
as §1
Consider A375 (melanoma, adherent), for which the AUC came out at 0.922 and the half-inhibitory concentration (IC50) was > 20000 nM.
Taken in the same sequence, the figures for A673 (rhabdomyosarcoma, adherent) were 0.976 and > 20000 nM.
Regarding CAL-78 (chondrosarcoma, adherent), the AUC was determined as 0.975 and the half-inhibitory concentration (IC50) is > 20000 nM.
In the case of H2591 (mesothelioma, adherent), the AUC was 0.94 and the half-maximal inhibitory concentration (IC50) is > 20000 nM.
As to KU-19-19 (bladder, adherent), the AUC stood at 0.961 and the IC50 was > 20000 nM.
Regarding MFE-319 (endometrium, adherent), the AUC is 0.984 and the IC50 is > 20000 nM.
For NY (osteosarcoma, adherent) the same measures were 0.986 and > 20000 nM.
Consider OVCAR-3 (ovary, adherent), for which the AUC stood at 0.986 and the IC50 was > 20000 nM.
PCI-30 (head and neck, adherent): the AUC came out at 0.974 and the 50% inhibitory concentration (IC50) is > 20000 nM.
Taken in the same sequence, the figures for PL4 (pancreas, adherent) were 0.98 and > 20000 nM.
Taken in the same sequence, the figures for “RERF-LC-KJ (lung adenocarcinoma, adherent)” were 0.954 and > 20000 nM.
For RKN (ovary, adherent) the same measures were 0.972 and > 20000 nM.
As to RPMI-7951 (melanoma, adherent), the AUC is 0.959 and the IC50 is > 20000 nM.
Taken in the same sequence, the figures for “SBC-3 (small cell lung carcinoma, adherent)” were 0.831 and 11100 nM.
Taken in the same sequence, the figures for SF295 (glioma, adherent) were 0.844 and 16100 nM.
Taken in the same sequence, the figures for SK-LU-1 (lung adenocarcinoma, adherent) were 0.979 and > 20000 nM.
As for SK-MEL-28 (melanoma, adherent), the AUC worked out at 0.952 and the IC50 was > 20000 nM.
With SKN (uterus, adherent), the AUC was found to be 0.982 and the IC50 is > 20000 nM.
With SU-DHL-10 (B-cell lymphoma, suspension), the AUC amounted to 0.983 and the IC50 was > 20000 nM.
Consider SW626 (ovary, adherent), for which the AUC is 0.933 and the IC50 is > 20000 nM.
Taken in the same sequence, the figures for “SW1271 (small cell lung carcinoma, adherent)” were 0.885 and > 20000 nM.
Take TOV-21G (ovary, adherent): the AUC was determined as 0.976 and the IC50 is > 20000 nM.
For TOV-112D (ovary, adherent) the same measures were 0.695 and 4420 nM.
Taken in the same sequence, the figures for TT2609-C02 (thyroid, adherent) were 0.975 and > 20000 nM.
For TYK-nu (ovary, adherent) the same measures were 0.963 and > 20000 nM.

Compound in a further assay: CC(C)=CC[C@@H](O)C1=CC(=O)c2c(O)ccc(O)c2C1=O [Shikonin]
Described as above. Conditions: top dose 16 µM; top dose inferred. As to the method:
as §1
Turning to A375 (melanoma, adherent), the AUC was 0.31 and the IC50 came out at 328 nM.
For A673 (rhabdomyosarcoma, adherent) the same measures were 0.455 and 764 nM.
CAL-78 (chondrosarcoma, adherent): the AUC turned out to be 0.676 and the IC50 was 3340 nM.
